# The other results are listed elsewhere or left out. These are noisy estimates, calculated here from bound and input reads.
# Biological target: T1, Pho4 (S. cerevisiae) (UniProt P07270)
# T1 sequence: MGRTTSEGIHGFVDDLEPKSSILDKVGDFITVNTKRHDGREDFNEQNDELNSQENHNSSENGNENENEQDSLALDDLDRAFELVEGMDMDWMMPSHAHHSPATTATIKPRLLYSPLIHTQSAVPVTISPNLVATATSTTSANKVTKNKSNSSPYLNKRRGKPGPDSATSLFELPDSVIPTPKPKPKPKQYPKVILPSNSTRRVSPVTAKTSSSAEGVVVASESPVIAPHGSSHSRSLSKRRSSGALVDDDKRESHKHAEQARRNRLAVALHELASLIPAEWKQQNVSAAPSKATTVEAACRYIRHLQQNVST
# Assay: relative binding free energy (BET-seq); higher = weaker binding
# Conditions: reference: library average
row,Sequence,relative binding free energy
1,TGTAACACGTGGTGCT,-0.12 kcal/mol
2,GGTGGCACGTGCGCGA,-0.26 kcal/mol
3,CGTTCCACGTGTGGGG,-0.02 kcal/mol
4,TGGGTCACGTGGTTTC,0.2 kcal/mol
5,TAAATCACGTGTCGGG,0.24 kcal/mol
6,CATGGCACGTGTAGTG,0.08 kcal/mol
7,TAGGTCACGTGGTTAC,0.13 kcal/mol
8,GCGGGCACGTGAGCTG,0.08 kcal/mol
9,GGCAGCACGTGACTGG,0.2 kcal/mol
10,AAGTTCACGTGATTCG,0.29 kcal/mol
11,AAGCTCACGTGATGTG,0.31 kcal/mol
12,ATGGGCACGTGATAGG,-0.04 kcal/mol
13,AATCGCACGTGTTGGT,-0.11 kcal/mol
14,CCGGTCACGTGGTCGG,0.02 kcal/mol
15,GTTGTCACGTGAGAGT,0.31 kcal/mol
16,TGGGTCACGTGGTCGA,0.05 kcal/mol
17,GATCGCACGTGGTGTA,0.03 kcal/mol
18,ATGCGCACGTGGAGTG,-0.27 kcal/mol
19,GATATCACGTGTGCGG,0.13 kcal/mol
20,TGAAACACGTGTGGGG,0.09 kcal/mol
21,CGAATCACGTGTTTAG,0.28 kcal/mol
22,TTAGGCACGTGACTCG,0.05 kcal/mol
23,TGGGTCACGTGAAGTC,0.24 kcal/mol
24,TATGTCACGTGGTTCG,0.11 kcal/mol
25,TAAGTCACGTGCGTAA,0.16 kcal/mol

row,Sequence,relative binding free energy
1,CGGTACACGTGGCTGT,-0.02 kcal/mol
2,AAGGTCACGTGAGGCA,0.18 kcal/mol
3,GTTGTCACGTGGCTGA,0.19 kcal/mol
4,GTGTTCACGTGTTATT,0.17 kcal/mol
5,AGGTACACGTGTGGCT,0.13 kcal/mol
6,GGTCTCACGTGTGAGG,0.21 kcal/mol
7,TTATGCACGTGAAGTT,0.15 kcal/mol
8,GGTGACACGTGAGCGG,0.15 kcal/mol
9,ACGTGCACGTGATATG,0.06 kcal/mol
10,ATAGACACGTGGAGGG,-0.04 kcal/mol
11,CTAGGCACGTGGATTG,-0.09 kcal/mol
12,TTATTCACGTGGCGTG,0.2 kcal/mol
13,TAAAGCACGTGTAGGA,-0.08 kcal/mol
14,ATGGTCACGTGGCCAG,0.01 kcal/mol
15,TCGATCACGTGGGCTG,0.01 kcal/mol
16,TTTTACACGTGGCAAT,0.07 kcal/mol
17,CGGCACACGTGTTGTG,0.05 kcal/mol
18,GATTCCACGTGGAGTT,0.24 kcal/mol
19,AGTGACACGTGGTATT,-0.01 kcal/mol
20,GGTATCACGTGCTCGT,0.15 kcal/mol
21,GGCAGCACGTGTTAGC,0.2 kcal/mol
22,TTGATCACGTGTCGAT,0.33 kcal/mol
23,CGTATCACGTGTGAGC,0.26 kcal/mol
24,TAAATCACGTGTTTGA,0.06 kcal/mol
25,AATTGCACGTGGTTCT,-0.02 kcal/mol

row,Sequence,relative binding free energy
1,TGAGTCACGTGCTTTG,0.09 kcal/mol
2,GGCGGCACGTGGGTTA,-0.21 kcal/mol
3,TTCAACACGTGTGAGG,0.27 kcal/mol
4,ATGGCCACGTGTTTTT,-0.04 kcal/mol
5,AGAATCACGTGTGAGA,0.24 kcal/mol
6,TGAGACACGTGAGTAT,0.24 kcal/mol
7,AATGGCACGTGTGTCT,0.01 kcal/mol
8,AGCGGCACGTGGGGAA,-0.22 kcal/mol
9,GGAAACACGTGAGGGG,0.29 kcal/mol
10,TGGTACACGTGTTATG,0.05 kcal/mol
11,GGATTCACGTGTCGGT,0.32 kcal/mol
12,CGTTTCACGTGTGTCA,0.28 kcal/mol
13,TGTGCCACGTGGGATA,-0.13 kcal/mol
14,GTAAGCACGTGGTTGG,-0.21 kcal/mol
15,GACTGCACGTGTATGG,0 kcal/mol
16,TAGAGCACGTGGGCAT,-0.19 kcal/mol
17,GGGGCCACGTGCAGGG,-0.2 kcal/mol
18,TGCGTCACGTGTAATG,0.21 kcal/mol
19,GGGTGCACGTGTACAT,0.07 kcal/mol
20,TGGGGCACGTGCTTCA,-0.14 kcal/mol
21,GTCTGCACGTGGTGGC,-0.03 kcal/mol
22,TTGATCACGTGCGGTG,0.14 kcal/mol
23,AGATACACGTGAGGGT,0.16 kcal/mol
24,AGAGTCACGTGCGGGA,0.07 kcal/mol
25,TGGGGCACGTGTAGTA,-0.04 kcal/mol

row,Sequence,relative binding free energy
1,CGAAGCACGTGTGTGA,0.03 kcal/mol
2,TGGTACACGTGGGAGG,0.03 kcal/mol
3,TGTTTCACGTGGATCT,0.16 kcal/mol
4,TGAGTCACGTGGTTAC,0.06 kcal/mol
5,GGCATCACGTGGTGGT,0.22 kcal/mol
6,TTTGGCACGTGAGCGA,-0.06 kcal/mol
7,GGTGACACGTGGCGGC,-0.1 kcal/mol
8,GGGAGCACGTGTTTCA,0.01 kcal/mol
9,CTGGGCACGTGATGAA,-0.01 kcal/mol
10,AGGGTCACGTGTACTT,0.14 kcal/mol
11,GGGTTCACGTGTTATT,0.37 kcal/mol
12,AGGTCCACGTGGGTCT,-0.16 kcal/mol
13,CATATCACGTGGCGGT,0.24 kcal/mol
14,GGTGACACGTGAAGAG,0.45 kcal/mol
15,TGTAACACGTGAGTTC,0.26 kcal/mol
16,TGTGCCACGTGTCAGG,-0.07 kcal/mol
17,GGCGGCACGTGTATGA,0.1 kcal/mol
18,TGATTCACGTGCGTGG,0.03 kcal/mol
19,GTTGACACGTGAGTGA,0.27 kcal/mol
20,GAGCACACGTGGAGTG,0.13 kcal/mol
21,TGGGGCACGTGTTATT,-0.05 kcal/mol
22,AGGATCACGTGGTTTG,0.18 kcal/mol
23,GGTTTCACGTGAATAT,0.51 kcal/mol
24,AAAGGCACGTGTTGAG,0 kcal/mol
25,TGATCCACGTGGGGTA,-0.15 kcal/mol

row,Sequence,relative binding free energy
1,GCAGGCACGTGAGTAT,0.23 kcal/mol
2,TGGGTCACGTGTTAGA,0.07 kcal/mol
3,TCGGGCACGTGCGGGT,-0.22 kcal/mol
4,AGGGGCACGTGATTAA,0 kcal/mol
5,GATATCACGTGTCGTT,0.27 kcal/mol
6,TTCAGCACGTGATATG,0.21 kcal/mol
7,GGATTCACGTGCAGTG,0.17 kcal/mol
8,GCATGCACGTGTGAGT,0.03 kcal/mol
9,TTTGACACGTGTGGGG,0.06 kcal/mol
10,GTTGCCACGTGTAGTA,-0.01 kcal/mol
11,GGAATCACGTGGAGAG,0.17 kcal/mol
12,CATGGCACGTGGGGTA,-0.32 kcal/mol
13,CTTTTCACGTGTTGTG,0.3 kcal/mol
14,TGGGTCACGTGGATGT,0.12 kcal/mol
15,TTTGGCACGTGGGCGA,-0.17 kcal/mol
16,AATTACACGTGTGTTT,0.09 kcal/mol
17,GTCCGCACGTGGGTGG,-0.36 kcal/mol
18,ATGGTCACGTGTTCCT,0.32 kcal/mol
19,TATGACACGTGTCGGA,0.11 kcal/mol
20,CGGGCCACGTGAGTTG,0.11 kcal/mol
21,TAGTTCACGTGGGAGG,0.19 kcal/mol
22,TGTGTCACGTGATTGA,0.28 kcal/mol
23,GGTAACACGTGAGGAT,0.21 kcal/mol
24,GAATTCACGTGTTGAA,0.46 kcal/mol
25,CTTGACACGTGAATTT,0.38 kcal/mol

row,Sequence,relative binding free energy
1,CCATTCACGTGGGGGT,0.03 kcal/mol
2,TTTTACACGTGTCTTA,-0.01 kcal/mol
3,GAGTTCACGTGGTAAG,0.39 kcal/mol
4,ATAGGCACGTGATGTC,-0.07 kcal/mol
5,ATGTTCACGTGGTTGT,0.12 kcal/mol
6,ATGTCCACGTGAGTGA,0.21 kcal/mol
7,TATTCCACGTGTGGGG,0.28 kcal/mol
8,CATTGCACGTGTGTGT,0.08 kcal/mol
9,GCGGGCACGTGTACGG,-0.12 kcal/mol
10,TTTTACACGTGATCGT,0.12 kcal/mol
11,AGTTTCACGTGAATTA,0.24 kcal/mol
12,ACTGTCACGTGTAATG,0.11 kcal/mol
13,GGTGTCACGTGATCGA,0.15 kcal/mol
14,TTCATCACGTGGTATT,0.03 kcal/mol
15,TCCGTCACGTGGTTTT,0.12 kcal/mol
16,GTAACCACGTGTTGGG,0.01 kcal/mol
17,CTTTGCACGTGAAAGT,0.2 kcal/mol
18,AGTGCCACGTGCAGGG,-0.24 kcal/mol
19,GTTGTCACGTGCTGTG,0.12 kcal/mol
20,GTAGCCACGTGGCGTG,-0.12 kcal/mol
21,ATAATCACGTGTGGCT,0.21 kcal/mol

# Reference: the BET-seq Pho4 binding data (Le et al. 2018)
